Assay results taken from the supplement of paper PMC4604168 (melanoma cell lines).
The other results are listed elsewhere or left out. Repeats are few or missing, and single values can be far off.

The molecules below were run on COLO800 (assay: cell count relative to DMSO control; melanoma cells; higher = more viable cells). Conditions: library dose: low library concentration; 72 h.
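Also: cell number obtained by counting DAPI-stained nuclei in high-throughput microscope images with image analysis software, screen run in 1,536-well plates.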

| SMILES | cell count [%] |
| --- | --- |
| NC1(c2ccc(-c3nc4ccn5c(=O)[nH]nc5c4cc3-c3ccccc3)cc2)CCC1 + COC(=O)c1sccc1S(=O)(=O)Nc1ccc(Nc2ccccc2)cc1OC [GSK0660] (first compound 0.4 µM, partner dose 1 µM) | 160 |
| CCCS(=O)(=O)Nc1ccc(F)c(C(=O)c2c[nH]c3ncc(Cl)cc23)c1F + O=C(O)C(=O)Nc1sc2c(c1C(=O)O)CCNC2 [TCS401] (first compound 0.08 µM, partner dose 1.66667 µM) | 116 |
| CS(=O)(=O)c1ccc(C(=O)Nc2ccc(Cl)c(-c3ccccn3)c2)c(Cl)c1 [vismodegib] + O=C(O)C(=O)Nc1sc2c(c1C(=O)O)CCNC2 [TCS401] (first compound 1 µM, partner dose 1.66667 µM) | 90.2 |
| C=C(c1ccc(C(=O)O)cc1)c1cc2c(cc1C)C(C)(C)CCC2(C)C [Bexarotene] + N#Cc1c(O)c2c(-c3ccc(-c4ccccc4O)cc3)csc2[nH]c1=O [A769662] (first compound 2 µM, partner dose 2 µM) | 121 |
| C=C(c1ccc(C(=O)O)cc1)c1cc2c(cc1C)C(C)(C)CCC2(C)C [Bexarotene] + COc1ccc(-c2ccc3c(N4CCOCC4)nc(N4C[C@@H](C)O[C@@H](C)C4)nc3n2)cc1CO [KU0063794] (first compound 2 µM, partner dose 0.02 µM) | 119 |
| CCCS(=O)(=O)Nc1ccc(F)c(C(=O)c2c[nH]c3ncc(Cl)cc23)c1F + COc1ccc(COc2ccc(Cc3cnc(N)nc3N)cc2OC)cc1 [GW2580] (first compound 0.08 µM, partner dose 1 µM) | 120 |

Each molecule was assayed on COLO829 in the same assay as above. Conditions: library dose: low library concentration; 72 h.

| SMILES | cell count [%] |
| --- | --- |
| C=C(c1ccc(C(=O)O)cc1)c1cc2c(cc1C)C(C)(C)CCC2(C)C [Bexarotene] + Cn1cc(/C=C2\C(=O)Nc3cccnc32)c2ccccc21 [GW441756] (first compound 2 µM, partner dose 0.4 µM) | 60.9 |
| NC1(c2ccc(-c3nc4ccn5c(=O)[nH]nc5c4cc3-c3ccccc3)cc2)CCC1 + CC(C)CCN1c2nc(Nc3cc(F)c(O)c(F)c3)ncc2N(C)C(=O)C1C [BID1870] (first compound 0.4 µM, partner dose 0.2 µM) | 94.1 |
| CS(=O)(=O)c1ccc(C(=O)Nc2ccc(Cl)c(-c3ccccn3)c2)c(Cl)c1 [vismodegib] + N#Cc1c(O)c2c(-c3ccc(-c4ccccc4O)cc3)csc2[nH]c1=O [A769662] (first compound 1 µM, partner dose 2 µM) | 105 |
| CN(c1ncccc1CNc1nc(Nc2ccc3c(c2)CC(=O)N3)ncc1C(F)(F)F)S(C)(=O)=O + COC(=O)c1sccc1S(=O)(=O)Nc1ccc(Nc2ccccc2)cc1OC [GSK0660] (first compound 0.08 µM, partner dose 1 µM) | 78.1 |
| CCCS(=O)(=O)Nc1ccc(F)c(C(=O)c2c[nH]c3ncc(Cl)cc23)c1F + COC(=O)c1sccc1S(=O)(=O)Nc1ccc(Nc2ccccc2)cc1OC [GSK0660] (first compound 0.08 µM, partner dose 1 µM) | 107 |
| NC1(c2ccc(-c3nc4ccn5c(=O)[nH]nc5c4cc3-c3ccccc3)cc2)CCC1 + COc1cc(N2CCC(N3CCN(C)CC3)CC2)ccc1Nc1ncc(Cl)c(Nc2ccccc2S(=O)(=O)C(C)C)n1 [NVP-TAE684] (first compound 0.4 µM, partner dose 0.08 µM) | 91.8 |
| CS(=O)(=O)c1ccc(C(=O)Nc2ccc(Cl)c(-c3ccccn3)c2)c(Cl)c1 [vismodegib] + CCN(CC)CCCCNc1ncc2cc(-c3cc(OC)cc(OC)c3)c(NC(=O)NC(C)(C)C)nc2n1 [PD173074] (first compound 1 µM, partner dose 0.1 µM) | 99.7 |
| CCCS(=O)(=O)Nc1ccc(F)c(C(=O)c2c[nH]c3ncc(Cl)cc23)c1F + N#Cc1c(O)c2c(-c3ccc(-c4ccccc4O)cc3)csc2[nH]c1=O [A769662] (first compound 0.08 µM, partner dose 2 µM) | 101 |
| CCCS(=O)(=O)Nc1ccc(F)c(C(=O)c2c[nH]c3ncc(Cl)cc23)c1F + COc1ccc2c(c1)CCC1C2CCC2(C)C(NCCCCCCN3C(=O)C=CC3=O)CCC12 [U73122] (first compound 0.08 µM, partner dose 0.4 µM) | 123 |
| CN(c1ncccc1CNc1nc(Nc2ccc3c(c2)CC(=O)N3)ncc1C(F)(F)F)S(C)(=O)=O + O=S(=O)(c1ccccc1)N(CC(F)(F)F)c1ccc(C(O)(C(F)(F)F)C(F)(F)F)cc1 [T0901317] (first compound 0.08 µM, partner dose 1.4 µM) | 62.2 |
| CCCS(=O)(=O)Nc1ccc(F)c(C(=O)c2c[nH]c3ncc(Cl)cc23)c1F + O=C1NC(=O)/C(=C/c2ccc(-c3ccc(F)cc3O)o2)S1 [AS252424] (first compound 0.08 µM, partner dose 1 µM) | 86.9 |
| NC1(c2ccc(-c3nc4ccn5c(=O)[nH]nc5c4cc3-c3ccccc3)cc2)CCC1 + COc1cc2ncnc(Nc3ccc(Oc4ccccc4)cc3)c2cc1OC [SrcI1] (first compound 0.4 µM, partner dose 2 µM) | 86.9 |
| C=C(c1ccc(C(=O)O)cc1)c1cc2c(cc1C)C(C)(C)CCC2(C)C [Bexarotene] + COc1cc2ncnc(Nc3ccc(Oc4ccccc4)cc3)c2cc1OC [SrcI1] (first compound 2 µM, partner dose 2 µM) | 112 |
| C=C(c1ccc(C(=O)O)cc1)c1cc2c(cc1C)C(C)(C)CCC2(C)C [Bexarotene] + O=S(=O)(c1ccccc1)N(CC(F)(F)F)c1ccc(C(O)(C(F)(F)F)C(F)(F)F)cc1 [T0901317] (first compound 2 µM, partner dose 1.4 µM) | 110 |
| C=C(c1ccc(C(=O)O)cc1)c1cc2c(cc1C)C(C)(C)CCC2(C)C [Bexarotene] + Oc1cc(-c2nc(-c3ccccc3)[nH]c2-c2ccncc2)ccc1Cl [L779450] (first compound 2 µM, partner dose 0.2 µM) | 116 |
| CN(c1ncccc1CNc1nc(Nc2ccc3c(c2)CC(=O)N3)ncc1C(F)(F)F)S(C)(=O)=O + COc1ccc2c(c1)CCC1C2CCC2(C)C(NCCCCCCN3C(=O)C=CC3=O)CCC12 [U73122] (first compound 0.08 µM, partner dose 0.4 µM) | 79.3 |
| CCCS(=O)(=O)Nc1ccc(F)c(C(=O)c2c[nH]c3ncc(Cl)cc23)c1F + CCCCCCCCCCCC1=C(O)C(=O)C=C(O)C1=O [Embelin] (first compound 0.08 µM, partner dose 1.2 µM) | 116 |
| CN(c1ncccc1CNc1nc(Nc2ccc3c(c2)CC(=O)N3)ncc1C(F)(F)F)S(C)(=O)=O + Oc1nc(-c2ccc(C(F)(F)F)cc2)nc2c1CSCC2 [XAV939] (first compound 0.08 µM, partner dose 2 µM) | 103 |
| NC1(c2ccc(-c3nc4ccn5c(=O)[nH]nc5c4cc3-c3ccccc3)cc2)CCC1 + COc1ccc2c(c1)CCC1C2CCC2(C)C(NCCCCCCN3C(=O)C=CC3=O)CCC12 [U73122] (first compound 0.4 µM, partner dose 0.4 µM) | 110 |
| C=C(c1ccc(C(=O)O)cc1)c1cc2c(cc1C)C(C)(C)CCC2(C)C [Bexarotene] + O=C1NC(=O)/C(=C/c2ccc(-c3ccc(F)cc3O)o2)S1 [AS252424] (first compound 2 µM, partner dose 1 µM) | 105 |
| CN(c1ncccc1CNc1nc(Nc2ccc3c(c2)CC(=O)N3)ncc1C(F)(F)F)S(C)(=O)=O + COc1cc(N2CCC(N3CCN(C)CC3)CC2)ccc1Nc1ncc(Cl)c(Nc2ccccc2S(=O)(=O)C(C)C)n1 [NVP-TAE684] (first compound 0.08 µM, partner dose 0.08 µM) | 83.8 |
| CN(c1ncccc1CNc1nc(Nc2ccc3c(c2)CC(=O)N3)ncc1C(F)(F)F)S(C)(=O)=O + O=c1cc(-c2cccc3c2Sc2ccccc2S3)oc(N2CCOCC2)c1 [KU55933] (first compound 0.08 µM, partner dose 1 µM) | 78.4 |
| CN(c1ncccc1CNc1nc(Nc2ccc3c(c2)CC(=O)N3)ncc1C(F)(F)F)S(C)(=O)=O + N#Cc1c(O)c2c(-c3ccc(-c4ccccc4O)cc3)csc2[nH]c1=O [A769662] (first compound 0.08 µM, partner dose 2 µM) | 48.8 |
| CCCS(=O)(=O)Nc1ccc(F)c(C(=O)c2c[nH]c3ncc(Cl)cc23)c1F + Oc1cc(-c2nc(-c3ccccc3)[nH]c2-c2ccncc2)ccc1Cl [L779450] (first compound 0.08 µM, partner dose 0.2 µM) | 114 |
| NC1(c2ccc(-c3nc4ccn5c(=O)[nH]nc5c4cc3-c3ccccc3)cc2)CCC1 + O=C(O)C(=O)Nc1sc2c(c1C(=O)O)CCNC2 [TCS401] (first compound 0.4 µM, partner dose 1.66667 µM) | 112 |
| CN(c1ncccc1CNc1nc(Nc2ccc3c(c2)CC(=O)N3)ncc1C(F)(F)F)S(C)(=O)=O + Cn1cc(/C=C2\C(=O)Nc3cccnc32)c2ccccc21 [GW441756] (first compound 0.08 µM, partner dose 0.4 µM) | 89 |
| CS(=O)(=O)c1ccc(C(=O)Nc2ccc(Cl)c(-c3ccccn3)c2)c(Cl)c1 [vismodegib] + COc1cc2ncnc(Nc3ccc(Oc4ccccc4)cc3)c2cc1OC [SrcI1] (first compound 1 µM, partner dose 2 µM) | 126 |
